# The supplement of paper PMC10681739
# ± gives the standard deviation of the averaged measurements. In all, about 4,000 sequences were measured (“arbitrary fluorescence units”: median about 830, highest 2% from about 6,500 on). This part holds few or none of the hits.
# Target: RUNX1 (UniProt Q01196)
# Test: RUNX1 binding intensity (PBM fluorescence), RUNX1 alone (arbitrary fluorescence units); higher = stronger binding
# Details: RUNX1 concentration 2 nM; ETS1 concentration 0 nM
# Description: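 gcPBM on 36-bp genomic-derived probes (partner site mutated) containing one RUNX1 site and no ETS1 site. Recombinant human RUNX1 (2 nM) was incubated alone or with ETS1 (25 nM) and detected by anti-RUNX1 antibody fluorescence. Values are medians over 4 replicate spots (not normalised). The probes sit in constant array flanks that are not printed.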
# 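Also: Full-length recombinant human RUNX1 bound to double-stranded DNA microarray spots, detected with an Alexa488-labelled secondary antibody after the anti-RUNX1 primary, read as scanned spot fluorescence.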
# Chain of UniProt Q01196 (Q01196 whole entry): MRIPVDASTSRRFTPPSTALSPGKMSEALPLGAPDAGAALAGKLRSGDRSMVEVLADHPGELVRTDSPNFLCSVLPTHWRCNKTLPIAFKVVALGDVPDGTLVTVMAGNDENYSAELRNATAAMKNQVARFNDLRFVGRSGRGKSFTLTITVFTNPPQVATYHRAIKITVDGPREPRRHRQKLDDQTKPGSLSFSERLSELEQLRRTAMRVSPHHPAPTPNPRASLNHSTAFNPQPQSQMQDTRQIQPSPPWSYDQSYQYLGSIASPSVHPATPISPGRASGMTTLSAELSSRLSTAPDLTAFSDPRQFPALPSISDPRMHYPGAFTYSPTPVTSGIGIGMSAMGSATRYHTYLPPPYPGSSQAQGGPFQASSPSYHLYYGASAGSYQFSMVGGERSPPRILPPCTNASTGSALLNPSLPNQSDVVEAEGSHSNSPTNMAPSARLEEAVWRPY
row,Sequence,RUNX1 binding intensity
1,CAAGGGAACGTCCTTAAACAGCTTGTGGTATTGCTG,842
2,GGGCCCCCTGAAAGAGCTTTGACCGCTCGAGCCTGC,740
3,AGGAGAGGTTGTTGCTTGAAGGTGTGGTCTCCTCCA,661
4,CCATTGGCGGGCGGTTTGAATGACGGAGGTGACGGC,772
5,CTCTTCCAGCAAGCCTTCCCTGACCACTGCTTGCTC,1060
6,GGAGGCCGTAAATGCTGAGTGTGCGGGGCCGAACGT,710
7,AGCTGGGGGCGGTTGTGGAGGGAGGTCCCTTGGCAT,764
8,AAACTGGCCACAGAGCAGTCTCCGTAAGCTGCCTCT,896
9,CACTGATTAAGAGCAAGTGTGTGTGGTTATTACCGT,748
10,CCCGGCTGTGGGCCCAGGAACTACATTGCCTAGAAG,839
11,TCTGAGAATGCAGCATATGTGTGTGGTCTCTAGTCA,755
12,CCCCCTGCGGCCAGGAGCAGTCCGAAAGTCGCAGCC,861.1 ± 7
13,TGAAGCAGGCCGAAGTGCTGTGGTTTCTGGCGACTG,959
14,AGCCTCCCGTACGCCGTCGCCCCCACACACGCCCGC,896
15,CCTTGGGCTTTGTGGTCTCCCACATACGGCCTGCCC,1130
16,ACCGCCGGGAGTTTCTGCCGCGGCTTTGCGGGGACG,791
17,TGCAGCGCAGCCTGGGACGTGCGGGCGGTGCATGAG,664
18,CACGTGTGCGGGAGGGAAGCAGCAAGTGACAGCGGG,744
19,TCCTCCCACGGGAATTGCCGTAGGACCGCAGCCCGA,925
20,TCCTCCACCGCAGAAAGGCAACTGGATCCTACCCGG,2280

row,Sequence,RUNX1 binding intensity
1,CCTGTCCGGGAGTCCTGAGAGGGAATCGCCCGCAAA,821
2,CCAGATTAGGTAACCCACCCGGCCCACAAAAAGCGG,903
3,GGGATCTACTGCCTCTCTCGGCCGCGGCCGCAGCAC,849
4,GCTCGCGTCATCATGCAGCGCCGACACCACAGACAC,822
5,AACTTGTGGGGTTTTCTTCTGATCTTGCTCCCCGCT,998
6,ACTGTGTGTGGTGTTCCACAGAGGACACTGCAAAGC,759
7,CGAATGTAACCACCTCTCGGCCCGGCCGTAAGAAGC,806
8,TGCGAGAGGAACAAGCTGGCTGCGGCCAAGTGCAGG,621
9,GCCAGGAGGACTTTCGGGTGGGTGTGGTATCTGCGA,717
10,AAAACGCGCAAATACGGTGGCTGCGGCCCGCGGGCA,693
11,TCAGAAAACCCAGAAACCCTAATTGTCCCCACAGAA,884
12,ACTGATGCGGTCACAGACAGCAAAGGCAGCAAACAG,1650
13,AAACTAGTTCCCCATATCATCTGTGGCTTGCACAAC,973
14,CTCGCAACCACAGCAGCCGCGCAGCAAGTGCCTGTA,938
15,GCTTCAGCTCCAACCCGCGCACTTCCAGAGAACGGG,790
16,AATAAACAGAAAGGTCTCTTGGAGCTGTGGTCTTGG,710
17,TAATGCGGTGACATCAGCAAGGCCAAACAGAAAGCT,929
18,ACGTAGACATGAAAGTAATGTGGTTCAGGACTGAGT,776
19,GAGAGCTGAGCGCAAGCTCAGCTGTGGGGCTGGTTG,649
20,TTTGCGGCGAGAGTCAAGTTCCCACACCCTGTTGAA,936
